Results on 45 molecules are retold here after paper PMC4336329 (PLoS ONE, 2015).

In all, about 310,000 compounds went through this assay and about 14,000 (4.5%) showed an effect of 50% or more. Effects have a minus sign here. The list shows a part of the results.
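Further: peak tail current of the secondary pulse compared with the same well before compound.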

The target in this assay is human ether-à-go-go-related gene (hERG) potassium channel (human, UniProt Q12809). Put plainly: primary screen, population patch clamp on CHO cells stably expressing hERG.
human ether-à-go-go-related gene (hERG) potassium channel, sequence (Q12809 whole entry, looked up): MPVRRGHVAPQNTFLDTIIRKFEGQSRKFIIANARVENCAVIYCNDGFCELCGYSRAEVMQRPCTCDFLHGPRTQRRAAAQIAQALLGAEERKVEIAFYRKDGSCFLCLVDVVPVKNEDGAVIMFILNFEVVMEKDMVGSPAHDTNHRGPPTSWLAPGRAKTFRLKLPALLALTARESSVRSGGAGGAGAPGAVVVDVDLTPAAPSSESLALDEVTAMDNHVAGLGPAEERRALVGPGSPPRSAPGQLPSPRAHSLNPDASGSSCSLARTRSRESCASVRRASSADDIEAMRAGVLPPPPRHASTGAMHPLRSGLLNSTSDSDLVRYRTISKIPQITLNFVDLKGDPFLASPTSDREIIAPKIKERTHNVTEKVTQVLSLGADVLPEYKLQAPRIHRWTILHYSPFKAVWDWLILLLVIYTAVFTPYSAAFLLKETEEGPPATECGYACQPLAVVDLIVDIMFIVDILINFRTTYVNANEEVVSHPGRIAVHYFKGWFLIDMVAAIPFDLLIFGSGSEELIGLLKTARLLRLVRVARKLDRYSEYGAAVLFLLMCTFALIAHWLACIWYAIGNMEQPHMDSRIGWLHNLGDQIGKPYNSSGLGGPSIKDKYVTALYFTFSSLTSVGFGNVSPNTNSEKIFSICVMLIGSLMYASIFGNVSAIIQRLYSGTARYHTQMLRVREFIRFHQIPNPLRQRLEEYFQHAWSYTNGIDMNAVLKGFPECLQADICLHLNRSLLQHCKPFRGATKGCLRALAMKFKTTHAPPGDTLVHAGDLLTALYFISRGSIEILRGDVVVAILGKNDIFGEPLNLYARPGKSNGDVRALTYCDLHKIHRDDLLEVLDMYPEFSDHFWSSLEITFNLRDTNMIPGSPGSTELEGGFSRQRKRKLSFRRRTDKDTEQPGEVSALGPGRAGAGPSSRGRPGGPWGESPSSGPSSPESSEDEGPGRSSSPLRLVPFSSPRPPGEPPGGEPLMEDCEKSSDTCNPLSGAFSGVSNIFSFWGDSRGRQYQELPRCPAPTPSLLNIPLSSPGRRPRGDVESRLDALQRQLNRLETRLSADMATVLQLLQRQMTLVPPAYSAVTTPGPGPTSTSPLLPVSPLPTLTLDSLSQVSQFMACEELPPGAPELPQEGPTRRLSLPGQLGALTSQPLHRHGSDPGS
Regarding `COc1ccc(CN(C)Cc2nc(Cc3cccc(F)c3)no2)c2cccnc12`, the “hERG current change (%, negative = inhibition) at 10uM” value is -12.5%.

On to `O=C(CSc1nccc(=O)[nH]1)Nc1ccc(Oc2ccccc2)cc1`, for which the “hERG current change (%, negative = inhibition) at 10uM” value was -3.01%.

`c1ccc(-c2csc3ncnc(N4CCc5ccccc5C4)c23)cc1`: the “hERG current change (%, negative = inhibition) at 10uM” value was -1.81%.

As to `CC(=O)NCCNC(=O)c1ccc(Sc2ccccc2)c([N+](=O)[O-])c1`, the “hERG current change (%, negative = inhibition) at 10uM” value was -47.9%.

In the case of `CC(Cc1ccccc1)(NC(=O)CN)c1ccccc1.Cl` (stereo not drawn), the “hERG current change (%, negative = inhibition) at 10uM” value is reported as 13.4%.

In the case of `COCCN1C(=O)N[C@@H](CCc2ccccc2)C(C(C)=O)=C1C`, the “hERG current change (%, negative = inhibition) at 10uM” value came to 1.88%.

Regarding `COc1cccc(Nc2nc(N)nc(C(F)(F)F)n2)c1`, the “hERG current change (%, negative = inhibition) at 10uM” value is given as -8.49%.

In the case of `CCc1ccc(-c2csc3nc[nH]c(=O)c23)cc1`, the “hERG current change (%, negative = inhibition) at 10uM” value is 3.15%.

On to `N#Cc1cccc(C#N)c1Oc1ccc(S(=O)(=O)Nc2ccccc2)cc1`, for which the “hERG current change (%, negative = inhibition) at 10uM” value is -10.5%.

As for `O=C(Nc1ccc(Nc2ccccc2)cc1)c1ccc(Cl)cc1[N+](=O)[O-]`, the “hERG current change (%, negative = inhibition) at 10uM” value came to 5.6%.

As for `N#C/C(=C\c1ccc(F)cc1F)S(=O)(=O)c1ccccn1`, the “hERG current change (%, negative = inhibition) at 10uM” value turned out to be 6.77%.

In the case of `Cc1cc(=O)oc(C)c1C(=O)NCCN1CCOCC1`, the “hERG current change (%, negative = inhibition) at 10uM” value is listed as 1.31%.

Turning to `CCOc1cc(CNCc2cccnc2)cc(Br)c1OCC(N)=O.Cl`, the “hERG current change (%, negative = inhibition) at 10uM” value amounted to 7.26%.

Regarding `CN(C1CCCCC1)S(=O)(=O)c1ccc(NC(=O)c2ccc(Br)o2)cc1`, the “hERG current change (%, negative = inhibition) at 10uM” value is recorded as -0.948%.

Take `COc1cccc(/C=N/NC(=O)CNC(=O)COc2ccccc2)c1O`: the “hERG current change (%, negative = inhibition) at 10uM” value is reported as -7.17%.

With `COc1cc(/C=C2\SC(N)=NC2=O)cc(Cl)c1O`, the “hERG current change (%, negative = inhibition) at 10uM” value stood at 20.2%.

As for `CCC(=O)NC(=S)Nc1ccc(N2CCOCC2)cc1`, the “hERG current change (%, negative = inhibition) at 10uM” value is reported as -2.62%.

As for `Clc1ccc(C2[C@H]3CN(CC4CCCCC4)[C@H](c4ccccc4)C34CC2(c2cccnc2)C4)cn1` (stereo partly drawn), the “hERG current change (%, negative = inhibition) at 10uM” value is -26.1%.

Consider `CS(=O)(=O)N1CCc2cc(S(=O)(=O)N3CCN(Cc4ccc5c(c4)OCO5)CC3)ccc21`, for which the “hERG current change (%, negative = inhibition) at 10uM” value was determined as 0.728%.

For `Cc1cc(C)cc(OCC(O)CN2C(=O)NC(C)(C)C2=O)c1` (stereo not drawn), the “hERG current change (%, negative = inhibition) at 10uM” value is recorded as 26.5%.

On to `Cc1sc(N)nc1-c1ccccc1`, for which the “hERG current change (%, negative = inhibition) at 10uM” value is 3.49%.

In the case of `Nc1[nH]ncc1C(=O)Nc1cccc(C(F)(F)F)c1`, the “hERG current change (%, negative = inhibition) at 10uM” value is -12.7%.

As for `COc1ccccc1C(=O)NCC1(c2ccccc2)CCCC1`, the “hERG current change (%, negative = inhibition) at 10uM” value was 1.65%.

With `CCc1noc(C)c1C(=O)N(C)CC(=O)Nc1ccccc1Br`, the “hERG current change (%, negative = inhibition) at 10uM” value is on record as -11.1%.

With `O=[N+]([O-])c1cc(/C=N/Nc2nc(N3CCCCC3)nc(N3CCCCC3)n2)ccc1O`, the “hERG current change (%, negative = inhibition) at 10uM” value turned out to be 11.1%.

As for `Cc1ccc(CCC(=O)NCc2ccccc2)o1`, the “hERG current change (%, negative = inhibition) at 10uM” value is on record as 8.56%.

As to `CC(C)c1ccc(C2NCc3ccccc3-n3cccc32)cc1.Cl` (stereo not drawn), the “hERG current change (%, negative = inhibition) at 10uM” value is reported as 2.86%.

For `Cc1ccc(-n2c(C)cc(C(=S)N3CCOCC3)c2C)cc1C`, the “hERG current change (%, negative = inhibition) at 10uM” value is reported as -2.75%.

For `COc1ccc(CCNC(=O)c2c(N)n(CCN3CCOCC3)c3nc4ccccc4nc23)cc1`, the “hERG current change (%, negative = inhibition) at 10uM” value is given as -0.58%.

With `O=C1CN(C(=O)CSc2nnc3ccccn23)c2ccccc2N1`, the “hERG current change (%, negative = inhibition) at 10uM” value is given as -2.81%.

In the case of `Cc1ccccc1C(=O)Nc1ccc(S(=O)(=O)N2CCN(C)CC2)cc1`, the “hERG current change (%, negative = inhibition) at 10uM” value came to 4.25%.

Regarding `O=C(CN1C(=O)NC(c2ccc(F)cc2)C1=O)Nc1ccc2c(c1)OCCO2` (stereo not drawn), the “hERG current change (%, negative = inhibition) at 10uM” value turned out to be 4.59%.

As to `Cc1ccccc1CSCC(=O)NCc1ccco1`, the “hERG current change (%, negative = inhibition) at 10uM” value was -4.96%.

Turning to `CSc1ccc(C2=CC(=O)C[C@H](c3ccc(Cl)cc3)C2)cc1`, the “hERG current change (%, negative = inhibition) at 10uM” value was -0.631%.

In the case of `CC1(C)C(=O)N(c2ccccc2)C1c1ccccc1O` (stereo not drawn), the “hERG current change (%, negative = inhibition) at 10uM” value is given as -9.23%.

As to `c1ccc2cc(CNCc3cccc4ccccc34)ccc2c1`, the “hERG current change (%, negative = inhibition) at 10uM” value stood at 5.96%.

As to `CCOc1c([N+](=O)[O-])cc2c(C)c(C(=O)N3CCN(C)CC3)oc2c1OCC.Cl`, the “hERG current change (%, negative = inhibition) at 10uM” value is given as -16.2%.

In the case of `CC(NC(=O)Nc1ccccc1)C(c1cccs1)N1CCN(C)CC1` (stereo not drawn), the “hERG current change (%, negative = inhibition) at 10uM” value was -17.8%.

As for `COc1ccccc1C(=O)NNC(=O)c1cccc(O)c1`, the “hERG current change (%, negative = inhibition) at 10uM” value was 22.4%.

`COc1ccc(/C=C(\C#N)C(=O)Nc2cccc(C)n2)cc1`: the “hERG current change (%, negative = inhibition) at 10uM” value came out at 14.1%.

In the case of `CS(=O)(=O)c1ccc(Cl)c(NC(=O)c2cccc(-n3cnnn3)c2)c1`, the “hERG current change (%, negative = inhibition) at 10uM” value is recorded as -65.6%.

Consider `CCN1CCN(c2ncnc3c2cnn3-c2ccc(Cl)cc2)CC1`, for which the “hERG current change (%, negative = inhibition) at 10uM” value was -22.1%.

Consider `COc1ccc(CCNC(=S)NCc2cccs2)cc1OC`, for which the “hERG current change (%, negative = inhibition) at 10uM” value amounted to 12.9%.

`O=C(C[n+]1cccc(/C=N/O)c1)N1CCCc2ccccc21.[Cl-]`: the “hERG current change (%, negative = inhibition) at 10uM” value is given as 12.3%.

As for `COc1ccccc1/C=N/NC(=O)c1csc(C)c1C`, the “hERG current change (%, negative = inhibition) at 10uM” value is given as -13.3%.
